Results reported in the supplement of paper PMC4967469.
IC50 is the fitted dose that halves viability relative to control wells, and lower means more sensitive; a fit beyond the top or the lowest dose is shown as a bound at that dose. AUC is the area under the same curve over the 256-fold range up to the top dose, as a fraction; the more sensitive the line, the further below 1. For some assays here: Where the top dose is marked as inferred, it comes from the curve model; the source does not state it. For some assays here: Drugs with an entry number were screened twice under separate entries, and the two screens often disagree.

Key:
Assay in all cases: Viability of human cancer cell lines after 72 h of drug (GDSC screen)
Bicalutamide = compound: CC(O)(CS(=O)(=O)c1ccc(F)cc1)C(=O)Nc1ccc(C#N)c(C(F)(F)F)c1 [Bicalutamide]; conditions: top dose inferred
Experimental: (§1)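 Human cancer cell lines in 384-well plates, medium with 10% serum, drug for 72 h over a 256-fold dose range (nine 2-fold or five 4-fold steps up to the top dose). Adherent lines were fixed and stained with the nucleic acid dye Syto60, suspension lines read with resazurin; signal relative to control wells, capped at 0 and 100%. One two-parameter sigmoid per drug and line, fitted in a mixed model over all curves with the slope shared within a line.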

Gemcitabine = compound: Nc1ccn([C@@H]2O[C@H](CO)[C@@H](O)C2(F)F)c(=O)n1 [Gemcitabine]; conditions: top dose 1.024 µM
Experimental: as §1

TW-37 = compound: CC(C)c1ccccc1Cc1cc(C(=O)Nc2ccc(S(=O)(=O)c3ccccc3C(C)(C)C)cc2)c(O)c(O)c1O [TW-37]; conditions: top dose 5 µM
Experimental: as §1

GNF-2 = compound: NC(=O)c1cccc(-c2cc(Nc3ccc(OC(F)(F)F)cc3)ncn2)c1 [GNF-2]; conditions: top dose 1.28 µM; top dose inferred
Experimental: as §1

T0901317 = compound: O=S(=O)(c1ccccc1)N(CC(F)(F)F)c1ccc(C(O)(C(F)(F)F)C(F)(F)F)cc1 [T0901317]; conditions: top dose 10.24 µM; top dose inferred
Experimental: as §1

LFM-A13 = compound: C/C(O)=C(\C#N)C(=O)Nc1cc(Br)ccc1Br [LFM-A13]; conditions: top dose 16 µM; top dose inferred
Experimental: as §1

KIN001-270 = compound: Cc1ccc(Nc2cc(-c3cccc(N4C(=O)c5ccccc5C4=O)c3)ncn2)cc1NS(C)(=O)=O [KIN001-270]; conditions: top dose 20 µM; top dose inferred
Experimental: as §1

AUY922 = compound: CCNC(=O)c1noc(-c2cc(C(C)C)c(O)cc2O)c1-c1ccc(CN2CCOCC2)cc1 [AUY922]; conditions: top dose 0.256 µM; top dose inferred
Experimental: as §1

MP470 = compound: S=C(NCc1ccc2c(c1)OCO2)N1CCN(c2ncnc3c2oc2ccccc23)CC1 [MP470]; conditions: top dose 20 µM; top dose inferred
Experimental: as §1

[1] = top dose 1.024 µM, screen: GDSC drug entry 150
[2] = top dose 10 µM, screen: GDSC drug entry 1502

| Cell Line | AUC (Bicalutamide; [1]) | IC50 (Bicalutamide; [1]) | AUC (Bicalutamide; [2]) | IC50 (Bicalutamide; [2]) | AUC (Gemcitabine) | IC50 (Gemcitabine) | AUC (TW-37) | IC50 (TW-37) | AUC (GNF-2) | IC50 (GNF-2) | AUC (T0901317) | IC50 (T0901317) | AUC (LFM-A13) | IC50 (LFM-A13) | AUC (KIN001-270) | IC50 (KIN001-270) | AUC (AUY922) | IC50 (AUY922) | AUC (MP470) | IC50 (MP470) |
| --- | --- | --- | --- | --- | --- | --- | --- | --- | --- | --- | --- | --- | --- | --- | --- | --- | --- | --- | --- | --- |
| LS-411N (large intestine, adherent) | 0.979 | > 1.02 µM | 0.979 | > 10 µM | 0.396 | 0.0312 µM | 0.726 | 1.6 µM | 0.89 | > 1.28 µM | 0.975 | > 10.2 µM | 0.957 | > 16 µM | 0.977 | > 20 µM | 0.558 | 0.0238 µM | 0.965 | > 20 µM |
| DEL (lymphoid neoplasm, suspension) | 0.994 | > 1.02 µM | 0.991 | > 10 µM | 0.09 | 0.00454 µM | 0.726 | 1.16 µM | 0.99 | > 1.28 µM | 0.966 | > 10.2 µM | 0.982 | > 16 µM | 0.974 | > 20 µM | 0.599 | 0.0281 µM | 0.545 | 1.61 µM |
| NCI-H322M (lung adenocarcinoma, suspension) | 0.984 | > 1.02 µM | 0.981 | > 10 µM | 0.983 | > 1.02 µM | 0.889 | > 5 µM | 0.983 | > 1.28 µM | 0.987 | > 10.2 µM | 0.977 | > 16 µM | 0.987 | > 20 µM | 0.975 | > 0.256 µM | 0.973 | > 20 µM |
| OMC-1 (cervix, adherent) | 0.988 | > 1.02 µM | 0.972 | > 10 µM | 0.72 | 0.278 µM | 0.617 | 0.665 µM | 0.984 | > 1.28 µM | 0.988 | > 10.2 µM | 0.979 | > 16 µM | 0.981 | > 20 µM | 0.451 | 0.0116 µM | 0.957 | > 20 µM |
| IA-LM (large cell lung carcinoma, adherent) | 0.977 | > 1.02 µM | 0.96 | > 10 µM | 0.21 | 0.00788 µM | 0.713 | 1.36 µM | 0.984 | > 1.28 µM | 0.963 | > 10.2 µM | 0.977 | > 16 µM | 0.981 | > 20 µM | 0.428 | 0.0099 µM | 0.942 | > 20 µM |
| HD-MY-Z (Hodgkin lymphoma, adherent) | 0.986 | > 1.02 µM | 0.947 | > 10 µM | 0.358 | 0.0258 µM | 0.53 | 0.377 µM | 0.985 | > 1.28 µM | 0.962 | > 10.2 µM | 0.983 | > 16 µM | 0.914 | > 20 µM | 0.698 | 0.0577 µM | 0.903 | > 20 µM |
| MZ7-mel (melanoma, adherent) | 0.987 | > 1.02 µM | 0.985 | > 10 µM | 0.441 | 0.0438 µM | 0.603 | 0.606 µM | 0.983 | > 1.28 µM | 0.979 | > 10.2 µM | 0.972 | > 16 µM | 0.987 | > 20 µM | 0.636 | 0.0385 µM | 0.919 | > 20 µM |
| EKVX (lung adenocarcinoma, adherent) | 0.959 | > 1.02 µM | 0.888 | > 10 µM | 0.933 | > 1.02 µM | 0.766 | 4.77 µM | 0.962 | > 1.28 µM | 0.97 | > 10.2 µM | 0.751 | 12.7 µM | 0.968 | > 20 µM | 0.772 | > 0.256 µM | 0.92 | > 20 µM |
| LC-2-ad (lung adenocarcinoma, adherent) | 0.981 | > 1.02 µM | 0.978 | > 10 µM | 0.039 | < 0.004 µM | 0.562 | 0.463 µM | 0.91 | > 1.28 µM | 0.981 | > 10.2 µM | 0.952 | > 16 µM | 0.943 | > 20 µM | 0.397 | 0.00827 µM | 0.973 | > 20 µM |
| H-EMC-SS (chondrosarcoma, adherent) | 0.979 | > 1.02 µM | 0.979 | > 10 µM | 0.647 | 0.185 µM | 0.551 | 0.45 µM | 0.981 | > 1.28 µM | 0.98 | > 10.2 µM | 0.971 | > 16 µM | 0.947 | > 20 µM | 0.745 | 0.101 µM | 0.92 | > 20 µM |
| TGBC24TKB (biliary tract, adherent) | 0.986 | > 1.02 µM | 0.982 | > 10 µM | 0.844 | 0.661 µM | 0.525 | 0.364 µM | 0.981 | > 1.28 µM | 0.985 | > 10.2 µM | 0.989 | > 16 µM | 0.976 | > 20 µM | 0.987 | > 0.256 µM | 0.917 | > 20 µM |
| NCI-H23 (lung adenocarcinoma, adherent) | 0.986 | > 1.02 µM | 0.98 | > 10 µM | 0.656 | 0.173 µM | 0.545 | 0.414 µM | 0.984 | > 1.28 µM | 0.935 | > 10.2 µM | 0.988 | > 16 µM | 0.981 | > 20 µM | 0.815 | 0.139 µM | 0.975 | > 20 µM |
| SU-DHL-8 (B-cell lymphoma, suspension) | 0.977 | > 1.02 µM | 0.979 | > 10 µM | 0.17 | 0.007 µM | 0.658 | 0.828 µM | 0.974 | > 1.28 µM | 0.445 | 0.458 µM | 0.912 | > 16 µM | 0.91 | > 20 µM | 0.564 | 0.0236 µM | 0.868 | 16.2 µM |
